PubChem BioAssay AID2675 (National Center for Advancing Translational Sciences (NCATS), 2010)
In all, about 280,000 compounds went through this assay and about 100 (0.036%) were called active. Inconclusive results, whose numbers are uncertain, are shown with a selection of clear calls. Calls come from the whole dose curve; as a rule, active = well fitted inhibition curve with a large enough effect in the signal ratio, with a control signal flat (not every such curve was filed as active); inconclusive = small, poorly fitted or top-dose-only effect, or effect the other way, or a change in a side signal; inactive = no such curve, though single readings can be large or run the other way; the % refers to the signal ratio. A potency beside an inconclusive call is a rough fit, not a confirmed value. “Side channel” marks fits to a control or component signal instead of the main read-out.

Each compound was assayed against Muscleblind-like protein 1 (Homo sapiens) (UniProt Q9NR56) (assay: qHTS Assay for Inhibitors of MBNL1-poly(CUG) RNA binding). Conditions: TR-FRET MBNL1-His/biotin-(CUG)12 binding, 665/545 ratio; series mostly up to 57.5 µM.
Procedure, shortened: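 TR-FRET between His-tagged MBNL1 and biotin-(CUG)12 RNA, detected with Tb anti-His antibody (0.055 ng/ul) and streptavidin-XL665 (5 nM), 60 min at room temperature. Compounds titrated 92 nM to 58 uM; 665/545 nm ratio normalized to buffer and complex controls.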
Potency is the fitted concentration of half-maximal effect; tags give direction and shape of the fitted curve or compound fluorescence and quenching.

UniProt Q9NR56, sequence (Q9NR56 whole entry, looked up): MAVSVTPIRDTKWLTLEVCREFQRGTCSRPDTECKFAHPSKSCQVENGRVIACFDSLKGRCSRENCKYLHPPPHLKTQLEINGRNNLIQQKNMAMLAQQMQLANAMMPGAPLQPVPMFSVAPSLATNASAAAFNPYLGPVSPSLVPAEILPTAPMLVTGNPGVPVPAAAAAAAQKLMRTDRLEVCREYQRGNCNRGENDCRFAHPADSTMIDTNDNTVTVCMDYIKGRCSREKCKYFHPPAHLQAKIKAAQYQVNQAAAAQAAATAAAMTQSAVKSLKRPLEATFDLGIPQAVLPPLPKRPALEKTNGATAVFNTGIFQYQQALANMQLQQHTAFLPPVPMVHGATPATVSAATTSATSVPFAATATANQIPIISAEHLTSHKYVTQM

Row | Structure (SMILES) | Potency
1 | CN1CCN(c2ccc([N+](=O)[O-])cc2C(=O)N2CCOCC2)CC1 | inconclusive: 12.6 µM [quencher, side channel, partial curve]
2 | Cc1ccc(NC(=S)Nc2cccc3cnccc23)cc1C | inconclusive: 15.8 µM [quencher, side channel, partial curve]
3 | N#Cc1c(-c2ccccc2)c(-c2ccccc2)n[nH]c1=O | inconclusive: 8.91 µM [activator, partial curve, poor fit]
4 | Cc1cccc(NC(=O)c2cc(-c3ccc(C)s3)nc3ccccc23)n1 | inactive
5 | Cc1ccc(S(=O)(=O)N2CCCCC2)cc1NC(=O)Cn1cnnn1 | inactive
6 | O=C(Oc1c(-c2ccco2)oc2ccccc2c1=O)c1cccnc1 | inconclusive: 25.1 µM [quencher, side channel, partial curve]
7 | Nc1nc(N)c2nc(-c3ccccc3)c(N)nc2n1 | inconclusive: 12.6 µM [quencher, side channel, partial curve]
8 | CC(C)n1nnnc1SCC(=O)NCc1ccc2c(c1)OCO2 | inactive
9 | CCSc1nnc2ccc(-c3ccc(C)cc3)nn12 | inconclusive: 8.91 µM [quencher, side channel, full curve]
10 | CCN(CC)CC#CCC(OC)(c1ccccc1)c1ccccc1 | inactive
11 | O=C(NCc1ccco1)c1cc(NS(=O)(=O)c2cccc([N+](=O)[O-])c2)ccc1O | inconclusive: 28.2 µM [quencher, side channel, partial curve]
12 | CC1CCN(S(=O)(=O)c2ccc3c(c2)C(=NO)c2cc(S(=O)(=O)N4CCC(C)CC4)ccc2-3)CC1 | inactive
13 | O=C(Cn1nc(-c2cccc([N+](=O)[O-])c2)c2ccccc2c1=O)NCC1CCCO1 (centres undefined) | inconclusive: 35.5 µM [quencher, side channel, partial curve]
14 | Cc1c(C=O)c2ccccn2c1C(=O)c1ccc(Cl)c([N+](=O)[O-])c1 | inactive
15 | C[C@H](NC(=O)c1nc[nH]c1C(=O)N[C@@H](Cc1ccccc1)C(=O)OC(C)(C)C)C(=O)OCc1ccccc1 | inactive
16 | CCn1cc(/C=C(\NC(=O)c2ccccc2F)C(=O)NCCCn2ccnc2)c2ccccc21 | inactive
17 | CCCCN(C(=O)NC(=O)Nc1c(C)cc(C)cc1C)S(C)(=O)=O | inconclusive: 3.16 µM [quencher, partial curve]
18 | Cc1[nH]n(-c2ccccc2)c(=S)c1C=Nc1cccc([N+](=O)[O-])c1 | inconclusive: 28.2 µM [quencher, side channel, single point]
19 | CCOc1ccc(C(=O)N/N=C/c2cccc3cccnc23)cc1 | inconclusive: 15.8 µM [quencher, side channel, partial curve]
